# In all, about 33,000 sequences were measured (“E-score (-0.5 to 0.5)”: median about -0.056, highest 2% from about 0.38 on). This is one part of the list.
# Biological target: Stb4 (UniProt P50104)
# Test: PBM E-score (8-mer binding enrichment) (E-score (-0.5 to 0.5)); higher = stronger / more preferred TF binding; most listed sequences are background and not binding sites
# Settings: protein concentration: 200 nM; construct: GST-DNA-binding domain
# In short: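 Masliner-normalised scans of fluorescent anti-GST signal were the basis for scoring. That signal came from GST-tagged yeast transcription factors applied at about 100-200 nM to double-stranded universal all-10-mer Agilent arrays on fresh or once-stripped slides. Each ungapped eight-base word, pooled with its reverse complement, received an E-score from the Universal PBM Analysis Suite.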
row,Sequence,PBM E-score
1,CAATCCAG,-0.14
2,CTTTACGC,-0.175
3,AGCGTCAT,-0.161
4,CAAAGCGG,0.181
5,CTCCCCGA,0.282
6,AAACTTCA,-0.0559
7,ACATAAGT,-0.123
8,GATTAAGC,0.146
9,CAAATCTG,-0.245
10,AATTTAGC,0.0778
11,AAAGTTCT,0.0237
12,ACGGCGAT,0.021
13,CACTACAA,-0.122
14,ACGCGACG,-0.13
15,AAAGACCG,0.135
16,CCGACCTA,0.296
17,GAAACTGA,-0.0639
18,ATCGAGAT,-0.134
19,GCACTCCC,-0.0044
20,TCGGTCAA,0.125
21,CGTCGCTA,-0.115
22,CGCCTTGA,-0.043
23,GCCACCGC,-0.0977
24,ATCGGTTA,0.368
25,GAAGAAAA,0.0784

row,Sequence,PBM E-score
1,CTTTATTC,-0.0862
2,CCCTGGCC,-0.216
3,CGACCTAA,0.174
4,CGAGTCTC,0.0605
5,GTTTATAA,0.21
6,ACCCGTGC,0.188
7,CATAGTCA,-0.202
8,CCTGCAGG,-0.0996
9,CAAGATTG,-0.236
10,CACCCCTC,0.125
11,AGAAGAGG,-0.195
12,ATAACTAC,-0.102
13,ACCTAAAC,0.138
14,CCCATACA,-0.173
15,ATGCCTGG,-0.26
16,ACTTGCAT,-0.0182
17,GCTACGTA,-0.0806
18,ATTGCAGC,-0.0905
19,ACAGCGGG,0.0241
20,CAGAACGA,-0.305
21,CATAGGAC,-0.271
22,AGATCGCC,-0.194
23,AGAAACCA,-0.156
24,GGGGAAAA,0.0659
25,ATCCTAGC,-0.239

row,Sequence,PBM E-score
1,CGGCTGCA,0.299
2,GTTCTACA,-0.196
3,CAGGTGGA,-0.236
4,TGTAACAA,-0.183
5,ATTCTCAG,-0.183
6,ATCAGAAA,-0.165
7,AACGCCCC,0.0739
8,ACTTTCAT,-0.0733
9,AATAGGGC,-0.139
10,CTTAACTA,-0.164
11,ATCTTAAG,-0.187
12,CTAGTGAG,-0.0255
13,CGTCTGAC,-0.0606
14,ATACTTCA,-0.271
15,ATCCCCGA,0.326
16,CAATAAGA,-0.0142
17,ACGGCTCT,0.0596
18,ATCTTAAA,0.0841
19,CCTTGCTA,-0.191
20,GAGCCCCC,-0.168
21,CAAGCGGA,0.206
22,AGCTGAGC,-0.155
23,CTGCGATC,-0.0408
24,AAAGGCAT,0.0246
25,AATCCTTG,-0.109

row,Sequence,PBM E-score
1,GGAGGCGA,-0.0436
2,TCGCCAAA,-0.0978
3,ATTTGCTG,-0.125
4,CCTCATTA,-0.163
5,AATATCAC,0.0295
6,AAGTCAAC,-0.27
7,CAGCGACC,-0.103
8,AGTTCTCG,0.0181
9,AAAGTAAA,-0.123
10,ATTGCATC,-0.0187
11,ATGAGTAA,0.0162
12,AGAAAGTG,-0.0811
13,CTTTTCCC,0.0541
14,ATACAATG,-0.0129
15,GGGGCACC,0.0181
16,AACATGGC,-0.202
17,AATGGGAA,-0.223
18,AAGAAGAT,0.0368
19,CGGTGAAA,0.216
20,GCTCCACA,-0.0061
21,GAAAAAGC,0.186
22,CAACTGAC,-0.102
23,ACGAAAAG,-0.23
24,ATCACAAC,-0.0964
25,GTACATAC,0.0415

row,Sequence,PBM E-score
1,AGAGCCTA,-0.297
2,AGCGCCGA,0.371
3,TCTGCAAA,-0.122
4,GCAATAGA,-0.0983
5,AACACGTT,-0.218
6,AAGAAATA,-0.0625
7,ATGCTATA,-0.228
8,CTCCTTTA,-0.116
9,CTGCTACA,-0.114
10,CGCGGAGA,0.153
11,ATTCCTGA,-0.149
12,AAATGACA,-0.182
13,TCGACTAA,-0.256
14,CCGTGTCA,0.237
15,AGGTACTA,-0.153
16,CAAACTTC,0.108
17,CCCTGGGC,-0.249
18,TCGAGACA,-0.144
19,CCGGGGCC,0.268
20,CCCCCCCC,-0.318
21,ACCTATCC,0.191
22,CATGACTA,-0.219
23,AATTAATG,0.162
24,CCTGTTCA,-0.145
25,AAATTTTC,0.195

row,Sequence,PBM E-score
1,CACTTAGC,-0.0703
2,ACTTGTGG,-0.153
3,CAAGGAGC,-0.249
4,CCCACAAG,0.0281
5,AAGGATCG,0.131
6,CCGTAGTC,0.159
7,GAGGACGC,0.0485
8,GAATGAGC,0.017
9,GAGCTGGC,-0.145
10,ATTGTGGC,-0.101
11,AAACGACC,0.00802
12,AAACCTCA,0.0266
13,ACACAGGA,-0.14
14,GCATGAGC,-0.122
15,CGTCCAGC,-0.186
16,AAAACAGC,0.0238
17,AGTATCCG,0.436
18,ATATCCGA,0.482
19,ACGGAGTC,-0.0191
20,CCCCGGTA,0.174
21,CACCCCCC,-0.0898
22,TGTCGCAA,0.0455
23,AACCCTAG,-0.213
24,CACGGACC,0.114
25,GTCCGATA,0.22

row,Sequence,PBM E-score
1,TGAGGGAA,-0.119
2,ATTTAAGG,-0.0945
3,AATCATGG,-0.266
4,AATAGTCA,-0.0161
5,AGCAGGCC,-0.114
6,CTACGCTA,-0.029
7,AACGTCTC,-0.176
8,GCTCCAAA,-0.0474
9,ATCCTATG,-0.216
10,AACGAGCA,-0.189
11,ATCTCCGG,0.345
12,ATTAATAA,0.161
13,TACACGTA,-0.0156
14,CCCTACAC,0.0388
15,CGTCATCA,-0.183
16,AATGAGGT,-0.00912
17,CAACGCAC,-0.164
18,ATAATAGC,0.0769
19,CTAGTCTC,-0.0684
20,ATCTCGAA,-0.0183
21,ATTTCTGG,-0.155
22,GGAGGATA,-0.0736
23,CTGTGAGC,-0.22
24,ATGTAGTC,-0.159
25,CACTACAG,-0.087

row,Sequence,PBM E-score
1,GGTAACCA,0.0374
2,CGGAGTAC,0.239
3,GCTTTGAA,-0.281
4,TGATCCCA,-0.188
5,ACGTGAAC,-0.176
6,ATTGTGGA,-0.187
7,CGTGGAAC,-0.0413
8,CCATTCAG,-0.05
9,CAGATGCC,-0.079
10,GACGGGGA,0.227
11,CGCGGGCC,0.185
12,AGGTCCTA,-0.206
13,GCTTGGTA,-0.238
14,CATGGTAC,-0.127
15,GGATGGGA,0.0414
16,AAAAGCCA,0.0382
17,CCCGTGAG,0.127
18,CCCGCAGG,0.115
19,TAGTACAA,-0.238
20,CTGATCAC,-0.275
21,AAGAACGA,7e-05
22,CACTTCTA,-0.0172
23,TCGGTACA,0.356
24,CGCACTTA,0.0972
25,ACGTCAGG,-0.112

row,Sequence,PBM E-score
1,CATCGGGG,0.168
2,AAAGGCTG,-0.114
3,GGCGCGAC,0.209
4,AGAAAGTA,0.0802
5,CCGTGCAC,0.00756
6,AAATGCCA,-0.168
7,ACGTCAAG,-0.211
8,AAGGCACA,0.00963
9,GGTCATAA,0.053
10,GTGCTCAA,-0.0249
11,CATCGAGG,-0.167
12,AGTGCCCC,-0.102
13,CCTCCCCC,-0.237
14,TAGGGTAA,0.0765
15,CGCCATTC,0.0794
16,ATCATGAT,-0.149
17,ACGTGAAA,-0.046
18,ACCCACTA,0.113
19,AGCGTACC,-0.0116
20,CCCGAATC,0.397
21,TCGCCTCA,-0.0701
22,GTATGCGA,0.0265
23,CTCCGTTA,0.0713
24,AATCAATC,0.055
25,GATGTTAA,0.0159

row,Sequence,PBM E-score
1,ACAGATAA,-0.0723
2,ACGTGTAA,-0.0473
3,AAGCGCAG,0.0233
4,ATCCTCCC,0.203
5,CATTACCA,0.0238
6,AGGCGGGG,0.117
7,CAAGGACC,-0.0279
8,CCTTACTA,0.00726
9,ACACTGTA,-0.146
10,TCCCAGAA,-0.159
11,TCTCTCCA,-0.198
12,ATTATTTA,0.0973
13,ATATTCGA,0.0718
14,AAGCGGAC,0.118
15,CGAGAAAC,0.151
16,ATCGGGAG,0.367
17,ATTCGCTG,-0.112
18,AACCGCTT,-0.0152
19,GACCGCGC,0.033
20,ACAATGAG,-0.276
21,CCACGCTC,-0.108
22,ATCGACAC,-0.0716
23,ACGGTGAC,-0.103
24,CTTCACAA,-0.17
25,GCGAAGTA,-0.0361

row,Sequence,PBM E-score
1,CACGGTGG,-0.061
2,ACCGGGGC,0.16
3,CTGCCGAC,0.331
4,CAACCTGG,-0.192
5,CCCCGGAA,0.27
6,ACATAAAA,-0.217
7,AAATCAGA,-0.0451
8,CCTACCCC,-0.0168
9,ATCTTTCG,0.0575
10,AACAGTGG,0.0178
11,GATAGTAC,-0.0416
12,TACCATGA,-0.32
13,AGGGCCCG,0.205
14,GTCTTTCA,-0.00663
15,ACCAATCA,-0.0969
16,ACGTTTGC,-0.11
17,ACAGACAT,-0.0423
18,CAATTAGC,0.0579
19,CCGTCATA,0.218
20,ACACTTTA,-0.0241
21,CTGATAAG,-0.0785
22,ACTAACTC,-0.0493
23,ACGTCGAT,-0.177
24,CCCCCACA,-0.36
25,CCACGCCC,-0.0253

row,Sequence,PBM E-score
1,ACTTGTCT,-0.0919
2,AGACGGGA,0.174
3,ATTCTCCA,-0.107
4,ACCCCGCG,0.0917
5,CCCCCAAC,-0.271
6,GTAGCAGA,-0.187
7,AAGGAAGC,0.0477
8,TAGAACCA,-0.153
9,GACGCCAC,-0.108
10,ATCGGACC,0.308
11,AGAGGTGC,-0.0186
12,CTAGATGA,-0.231
13,CAGGCACA,-0.178
14,GAGGTTTA,0.0299
15,GTAATAAC,-0.0893
16,GTGCTGGA,-0.0798
17,ATGCCGGC,0.263
18,GCGACCGC,0.00901
19,ACGCTAAC,-0.0806
20,GCAAGATA,-0.171
21,CCTGTGGA,-0.132
22,AGCAGTGA,0.0464
23,AGGGTCGA,0.0733
24,CCTCAAAG,-0.189
25,ATGGTGGA,-0.154

row,Sequence,PBM E-score
1,CCGTTTAG,0.166
2,AACTGTCT,-0.222
3,ATATGCAG,-0.103
4,GCTGGTCA,-0.156
5,ATTTAGAG,-0.118
6,AAGCGTTA,-0.191
7,CAATTTGC,-0.167
8,GCCCTTCC,0.0959
9,AGTGAGTC,-0.198
10,ACCTCAGT,-0.0847
11,CTCTATAC,-0.104
12,AGCGCTAA,-0.0696
13,ACCGTTTA,0.078
14,AAGTTAAG,-0.136
15,ATTAGTGG,-0.0523
16,TCTAGAAA,-0.115
17,TAATACGA,-0.0843
18,AGACCTAA,-0.216
19,CAATCCCC,0.0966
20,AGTCTACA,-0.149
21,CAACTGTG,-0.132
22,AGGGGGCG,-0.088
23,AGTTCAAC,0.109
24,CTCCAACA,-0.124
25,CATACGAC,-0.235

row,Sequence,PBM E-score
1,ATACTCAA,0.0186
2,CATTAGGC,-0.194
3,CATGCCGA,0.353
4,ATGCAGTG,-0.181
5,AATTCGCT,-0.0479
6,AGCGTGAG,-0.261
7,AGGGCTTA,-0.124
8,ACCTTCCA,-0.101
9,ACGACCTA,-0.0714
10,GATATGAC,0.0541
11,GGACTCCC,0.0915
12,AAATACAG,-0.0672
13,AATGTGGT,-0.159
14,TAACAAGA,-0.0585
15,AATAACCC,0.219
16,CGGACTCA,0.222
17,TATAGATA,-0.132
18,CTGGGTCA,-0.153
19,ATTCAACG,-0.0192

# From the supplement of paper PMC3334620
